# Data as given in PubChem BioAssay AID757 (NMMLSC, 2007).
# The whole screen tested about 190,000 compounds, of which about 520 (0.27%) were called active. Inconclusive means that the source gave no clear call. Such entries were picked first, then a sample of the others.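 The calls were made as follows: active = GTP binding activity at least 20 points away from the 100% control level, either lower or higher; inconclusive = compound flagged as likely green fluorescent, judged across all proteins; inactive = the rest.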
# Molecular target: Ras-related C3 botulinum toxin substrate 1 (Homo sapiens) (UniProt P63000)
# Assay: wildtype Rac1 GTP binding modulators, primary screen, biochemical, GST-Rac1 beads, flow cytometry, multiplex (AID 757)
# Conditions: fluorescent GTP binding, at 10 µM, actives lie on both sides, 0 = cold GTP competed, 100 = untreated
row,SMILES,GTP binding activity (% of control)
1,CC(=O)Oc1ccc(-c2cccc(C(=O)N(C)c3ccc(O)cc3)c2)cc1,inactive: 100%
2,O=C(O)CCCCCNS(=O)(=O)c1ccc(Cl)cc1,inconclusive: 100%
3,COc1ccc(C(=O)NNC(=S)NC(=O)c2cc(-c3ccccc3)nc3ccccc23)cc1,inconclusive: 92%
4,COc1ccc(/C=C(/NC(=O)/C=C/c2ccccc2)C(=O)N2CCOCC2)cc1,inconclusive: 106%
5,c1ccc(CSc2ccc3nnc(-c4cccnc4)n3n2)cc1,inconclusive: 88%
6,CC(=O)N1CCN(c2ccccc2NC(=O)c2ccc(-c3cccc([N+](=O)[O-])c3)o2)CC1,inconclusive: 88%
7,Cc1cc2nc(-c3ccc(SCc4ccccc4C#N)nc3)[nH]c2cc1C,inconclusive: 94%
8,Cc1ccc(C(=O)N2c3ccccc3CC2C)o1 (stereo not drawn),inconclusive: 92%
9,O=C(NCc1ccc(F)cc1)C(c1ccccc1)N(CC1CCCO1)C(=O)Cn1nnc2ccccc21 (stereo not drawn),inconclusive: 754%
10,O=C(COc1ccccc1[N+](=O)[O-])Nc1ccc(N2CCN(C(=O)c3cccs3)CC2)cc1,inactive: 98%
11,O=C(NCc1ccco1)/C(=C\C=C\c1ccccc1)NC(=O)c1ccccc1Br,inactive: 100%
12,COc1cc(OC)cc(C(=O)NNC(=O)NC2CCCCC2)c1,inactive: 102%
13,Cn1c(Sc2ccc(Br)cc2)c(C=O)c2ccccc21,inconclusive: 94%
14,COc1ccc(-c2cc(C(F)(F)F)n3nc(C(=O)NCCCN4CCOCC4)cc3n2)cc1,inconclusive: 95%
15,Cc1nc(-c2cnn(-c3ccccc3)c2)c2cc(C)oc2n1,active: 77%
16,C=CCn1c(-c2csc(-c3ccc(Cl)cc3)n2)n[nH]c1=S,active: 120% [activator]
17,CC1(C)C([N+](=O)[O-])C(c2ccccc2O)NC(c2ccccc2O)C1[N+](=O)[O-] (stereo not drawn),inactive: 97%
18,COc1ccc(/C=C(/C#N)C(=O)Nc2cccc([N+](=O)[O-])c2)cc1C(=O)O,inconclusive: 89%
19,CC1=C(C(=O)OC(C)C)C(c2cccs2)n2ncnc2N1 (stereo not drawn),inconclusive: 103%
20,COc1cc(/C=N/NC(=O)CCN2CCN(c3ccccc3)CC2)cc(OC)c1OC,active: 79%

row,SMILES,GTP binding activity (% of control)
1,O=C(C1CCC(CNc2nc(=S)[nH]c3ccccc23)CC1)N1CCN(c2ccc(F)cc2)CC1 (stereo not drawn),inconclusive: 88%
2,C/C(CC(=O)NC12CC3CC(CC(C3)C1)C2)=N\NC(=O)c1ccc(C)cc1,inactive: 99%
3,NC(=S)N=Nc1c(O)[nH]c2ccc(F)cc12,active: 76%
4,Nc1nn(-c2ccccc2)nc1C(=O)OCc1ccccc1F,inconclusive: 92%
5,Cc1ccc(NC(=O)c2cccc(S(C)(=O)=O)c2)cc1,inconclusive: 90%
6,COc1ccc(OC)c(-c2cc(C(=O)N3CCN(c4ncccn4)CC3)c3ccccc3n2)c1,inconclusive: 96%
7,CCn1cc(Br)c(C(=O)Nc2ccccc2C(=O)OC)n1,inconclusive: 93%
8,c1ccc(CSc2ccc(-c3cccs3)nn2)nc1,inconclusive: 98%
9,Cc1ccc(S(=O)(=O)Cc2ccc(C(=O)N3CCN(c4cc(C)ccc4C)CC3)o2)cc1,inactive: 80%
10,COC(=O)c1ccc(NC(=S)NNC(=O)c2ccccc2)cc1,inconclusive: 89%
11,OCCC1CN(Cc2ccc(Oc3ncccn3)cc2)CCN1CCc1ccccc1 (stereo not drawn),inactive: 98%
12,CCCn1cnc2cc(NCc3cccc(OC)c3O)ccc21,inconclusive: 94%
13,Cc1cc(=O)[nH]c(N/N=C/c2ccc(C)o2)n1,inconclusive: 94%
14,CCCSc1nc2c(cnn2-c2ccc(Cl)cc2)c(=O)[nH]1,inactive: 91%
15,Cn1c(=O)n(C)c2cc(C(=O)c3ccccc3)ccc21,inconclusive: 106%
16,Cc1ccc2c(c1)N(C(=O)CCC(=O)O)CCO2,inactive: 104%
17,N#CC1=C(N)OC2=C(C(=O)CCC2)C1c1ccsc1 (stereo not drawn),inconclusive: 106%
18,COc1cc(S(=O)(=O)N2CCC(C(N)=O)CC2)c(C)cc1C,inactive: 100%
19,CC1(C)CC(=O)C(C=NCCN2CCOCC2)=C(O)C1,inconclusive: 113%
20,CCOC(=O)C1=C(CC)Nc2ccccc2N=C1NC(=O)c1ccc(OC)c(S(=O)(=O)N2CCCCC2C)c1 (stereo not drawn),inconclusive: 95%

row,SMILES,GTP binding activity (% of control)
1,O=C1CCC(CCC(=O)N2CCCC(C(=O)c3cccc(C(F)(F)F)c3)C2)=NN1 (stereo not drawn),inactive: 99%
2,CC1SC(c2ccccc2)N(CC(O)c2ccc([N+](=O)[O-])cc2)C1=O (stereo not drawn),inactive: 100%
3,CCOC(=O)c1sc2ncn(/N=C/c3ccc(O)c(OC)c3)c(=O)c2c1C,inactive: 99%
4,O=C(NC1CCCC1)c1cc(Cl)ccc1[N+](=O)[O-],inconclusive: 105%
5,Cc1ccc(NC(=O)CN(C)CC(=O)Nc2cccc(F)c2)cc1S(=O)(=O)N1CCCCCC1,inconclusive: 107%
6,CCOC(=O)c1ccc(Nc2nc(C(=O)OCC)nc3ccccc23)cc1,inactive: 82%
7,C=CCn1c(CCCNC(=O)c2ccccc2OC)nc2ccccc21,inactive: 98%
8,CCN=C1SC(CC(=O)NCCc2ccc(OC)cc2)C(=O)N1CC (stereo not drawn),inconclusive: 105%
9,Cc1ccc(NC(=O)c2cccc3c2C(=O)N(C2CCCCC2)C3)cc1,inconclusive: 89%
10,CCCC(=O)Nc1nc(C)c(-c2csc(Nc3cc(OC)ccc3OC)n2)s1,inactive: 101%
11,Cc1ccc2c(CC(=O)N3CCN(S(=O)(=O)c4ccc5c(c4)OCCO5)CC3)coc2c1,inactive: 106%
12,O=C(N/N=C/C(Br)=C/c1ccccc1)C1CC1,inactive: 100%
13,COc1ccccc1CNC(=O)COC(=O)c1ccc(S(=O)(=O)N2CCCC2)cc1,inconclusive: 106%
14,O=C(Nc1ccc2c(c1)C(=O)NC2=O)c1ccc(S(=O)(=O)N2CCCC2)cc1,inconclusive: 89%
15,Cc1onc(-c2c(Cl)cccc2Cl)c1C(N)=S,inactive: 91%
16,COc1cc(CNC2CCCC2)c(Br)cc1OCc1ccccc1,inactive: 96%
17,Cn1c(NC(=O)c2ccccc2)c(-c2cccs2)c(=O)c2ccccc21,inactive: 105%
18,C=CCOc1ccc2nnc(C)n2n1,inactive: 103%
